Experimental data published in a collection of fitness landscapes (doi:10.1126/science.1257360).
This is one part of the list.

B1: PhoQ; a variant is named by its letters at X, in order, P23837 (parent)
chain: MKKLLRLFFPLSLRVRFLLATAAVVLVLSLAYGMVALIGYSVSFDKTTFRLLRGESNLFYTLAKWENNKLHVELPENIDKQSPTMTLIYDENGQLLWAQRDVPWLMKMIQPDWLKSNGFHEIEADVNDTSLLLSGDHSIQQQLQEVREDDDDAEMTHSVAVNVYPATSRMPKLTIVVVDTIPVELKSSYMVWSWFIYVLSANLLLVIPLLWVAAWWSLRPIEALAKEVRELEEHNRELLNPATTRELTSLVRNLNRLLKSERERYDKYRTTLTDLTHSLKTPLXXLQXXLRSLRSEKMSVSDAEPVMLEQISRISQQIGYYLHRASMRGGTLLSRELHPVAPLLDNLTSALNKVYQRKGVNISLDISPEISFVGEQNDFVEVMGNVLDNACKYCLEFVEISARQTDEHLYIVVEDDGPGIPLSKREVIFDRGQRVDTLRPGQGVGLAVAREITEQYEGKIVAGESMLGGARMEVIFGRQHSAPKDE

Variants of: B1
Experiment: enrichment ratio after two sorts for PhoP signalling (ratio (wild type AVST 3.29)); higher = more functional
Settings: with PhoP (E. coli)

| Variant | enrichment ratio |
| --- | --- |
| YAEW | ≤ 0.25 |
| VTVM | ≤ 0.25 |
| PAER | ≤ 0.25 |
| TPSR | ≤ 0.25 |
| DMQL | ≤ 0.25 |
| FFSI | ≤ 0.25 |
| KMDF | ≤ 0.25 |
| HFWR | ≤ 0.25 |
| FNTY | ≤ 0.25 |
| KYGN | ≤ 0.25 |
| IWYG | ≤ 0.25 |
| SFMR | ≤ 0.25 |
| PFPM | ≤ 0.25 |
| HNVG | ≤ 0.25 |
| HTKC | ≤ 0.25 |
| FATN | ≤ 0.25 |
| SRGM | ≤ 0.25 |
| PGTT | ≤ 0.25 |
| HWNL | ≤ 0.25 |
| NQHI | ≤ 0.25 |
| RHDF | ≤ 0.25 |

| Variant | enrichment ratio |
| --- | --- |
| EDGH | ≤ 0.25 |
| YSCD | ≤ 0.25 |
| TNLQ | ≤ 0.25 |
| RFYH | ≤ 0.25 |
| WSSN | ≤ 0.25 |
| GGQE | ≤ 0.25 |
| YYPH | ≤ 0.25 |
| TSYT | 7.45 |
| MCRS | ≤ 0.25 |
| FCSK | 1.8 |
| DFVK | ≤ 0.25 |
| IIQL | ≤ 0.25 |
| LGTC | ≤ 0.25 |
| RMTW | ≤ 0.25 |
| VIPR | ≤ 0.25 |
| GLAT | ≤ 0.25 |
| SYRT | ≤ 0.25 |
| DFAC | ≤ 0.25 |
| DHAI | ≤ 0.25 |
| QCHH | ≤ 0.25 |
| YYGT | ≤ 0.25 |

| Variant | enrichment ratio |
| --- | --- |
| FYKL | ≤ 0.25 |
| NNLW | ≤ 0.25 |
| THPT | ≤ 0.25 |
| HVFV | ≤ 0.25 |
| MIAG | 3.44 |
| PFVD | ≤ 0.25 |
| KTKT | ≤ 0.25 |
| EPVF | ≤ 0.25 |
| NMYV | ≤ 0.25 |
| THYF | ≤ 0.25 |
| TSMC | 7.72 |
| FQQN | ≤ 0.25 |
| ICEL | ≤ 0.25 |
| HTPF | ≤ 0.25 |
| SDSS | 0.569 |
| PSNR | ≤ 0.25 |
| VTYD | ≤ 0.25 |
| LGYF | ≤ 0.25 |
| VKIT | ≤ 0.25 |
| AWGG | ≤ 0.25 |
| TMEM | ≤ 0.25 |

| Variant | enrichment ratio |
| --- | --- |
| TVVL | ≤ 0.25 |
| PPYV | ≤ 0.25 |
| VPWL | ≤ 0.25 |
| NDFP | ≤ 0.25 |
| GDVR | ≤ 0.25 |
| KCVQ | ≤ 0.25 |
| NGFR | ≤ 0.25 |
| VYMK | ≤ 0.25 |
| SLVR | 0.339 |
| FFVL | ≤ 0.25 |
| ILII | ≤ 0.25 |
| VPGP | ≤ 0.25 |
| HFDN | ≤ 0.25 |
| DPQS | ≤ 0.25 |
| MSWA | 1.59 |
| HQCE | ≤ 0.25 |
| NQQN | ≤ 0.25 |
| MWWR | ≤ 0.25 |
| QMSV | 10.5 |
| VLVF | ≤ 0.25 |
| LGRI | ≤ 0.25 |
